# Results taken from US20230250147A1 (Sanofi, published 2023).
# Target: human glucagon-like peptide-1 (GLP-1) receptor (human, UniProt P43220 24-463)
# Assay: cell-based or functional assay
row,Binder,HTRF cAMP EC50 [pM]
1,GLP-1RA/FGF21 Fc fusion protein SEQ ID NO: 113 (Fc fusion) YGEGTFTSDKSQLLEKRLAHLFIEWLIKGGHSSIRPPPKGGGGGGGSGGGGSGGGGSA[… human IgG4 Fc with changes …]GGGSGSAHPIPDSSPLLQFGGQVRQRYLYTDDACQTEAHLEIREDGTVGGAADQSPESLLQLKALKPGVIQILGVKTSRFLCQRPDGALYGSLHFDPEACSFRELLLEDGYNVYQSEAHGLPLHLPGCKSPHRDPAPRGPARFLPLPGLPPAPPEPPGILAPQPPDVGSSDPLSMVGSQGRSPSYAS,158
2,GLP-1RA/FGF21 Fc fusion protein SEQ ID NO: 124 (Fc fusion) HGEGTFTSDKSKLLEKRLAHLFIEWLIAGGHSKGKPPPKGGGGGGGSGGGGSGGGGSA[… human IgG4 Fc with changes …]GGGSGSAHPIPDSSPLLQFGGQVRQRYLYTDDACQTEAHLEIREDGTVGGAADQSPESLLQLKALKPGVIQILGVKTSRFLCQRPDGALYGSLHFDPEACSFRELLLEDGYNVYQSEAHGLPLHLPGCKSPHRDPAPRGPARFLPLPGLPPAPPEPPGILAPQPPDVGSSDPLSMVGSQGRSPSYAS,10.6
3,GLP-1RA/FGF21 Fc fusion protein SEQ ID NO: 122 (Fc fusion) HGEGTFTSDKSQLLEKRLAHLFIEWLIAGGHSSIKPPPKGGGGGGGSGGGGSGGGGSA[… human IgG4 Fc with changes …]GGGSGSAHPIPDSSPLLQFGGQVRQRYLYTDDACQTEAHLEIREDGTVGGAADQSPESLLQLKALKPGVIQILGVKTSRFLCQRPDGALYGSLHFDPEACSFRELLLEDGYNVYQSEAHGLPLHLPGCKSPHRDPAPRGPARFLPLPGLPPAPPEPPGILAPQPPDVGSSDPLSMVGSQGRSPSYAS,14.5
4,GLP-1RA/FGF21 Fc fusion protein SEQ ID NO: 118 (Fc fusion) HGEGTFTSDKSQLLEKRLAHLFIEWLIAGGHSKIKYPPKGGGGGGGSGGGGSGGGGSA[… human IgG4 Fc with changes …]GGGSGSAHPIPDSSPLLQFGGQVRQRYLYTDDACQTEAHLEIREDGTVGGAADQSPESLLQLKALKPGVIQILGVKTSRFLCQRPDGALYGSLHFDPEACSFRELLLEDGYNVYQSEAHGLPLHLPGCKSPHRDPAPRGPARFLPLPGLPPAPPEPPGILAPQPPDVGSSDPLSMVGSQGRSPSYAS,18.3
5,GLP-1RA/FGF21 Fc fusion protein SEQ ID NO: 121 (Fc fusion) HGEGTFTSDKSQLLEKRLAHLFIEWLIAGGPSSGRYPPKGGGGGGGSGGGGSGGGGSA[… human IgG4 Fc with changes …]GGGSGSAHPIPDSSPLLQFGGQVRQRYLYTDDACQTEAHLEIREDGTVGGAADQSPESLLQLKALKPGVIQILGVKTSRFLCQRPDGALYGSLHFDPEACSFRELLLEDGYNVYQSEAHGLPLHLPGCKSPHRDPAPRGPARFLPLPGLPPAPPEPPGILAPQPPDVGSSDPLSMVGSQGRSPSYAS,11.9
6,GLP-1RA/FGF21 Fc fusion protein SEQ ID NO: 126 (Fc fusion) HGEGTFTSDKSKLLEKRAAHLFIEWLIAGGHSSIKPPPKGGGGGGGSGGGGSGGGGSA[… human IgG4 Fc with changes …]GGGSGSAHPIPDSSPLLQFGGQVRQRYLYTDDACQTEAHLEIREDGTVGGAADQSPESLLQLKALKPGVIQILGVKTSRFLCQRPDGALYGSLHFDPEACSFRELLLEDGYNVYQSEAHGLPLHLPGCKSPHRDPAPRGPARFLPLPGLPPAPPEPPGILAPQPPDVGSSDPLSMVGSQGRSPSYAS,8.51
7,GLP-1RA/FGF21 Fc fusion protein SEQ ID NO: 123 (Fc fusion) HGEGTFTSDKSKLLEKRLAHLFIEWLIKGGHSSIKPPPKGGGGGGGSGGGGSGGGGSA[… human IgG4 Fc with changes …]GGGSGSAHPIPDSSPLLQFGGQVRQRYLYTDDACQTEAHLEIREDGTVGGAADQSPESLLQLKALKPGVIQILGVKTSRFLCQRPDGALYGSLHFDPEACSFRELLLEDGYNVYQSEAHGLPLHLPGCKSPHRDPAPRGPARFLPLPGLPPAPPEPPGILAPQPPDVGSSDPLSMVGSQGRSPSYAS,12.7
8,GLP-1RA/FGF21 Fc fusion protein SEQ ID NO: 116 (Fc fusion) HGEGTFTSDKSQLLEKRLAHLFIEWLIAGGPSKGKPPPKGGGGGGGSGGGGSGGGGSA[… human IgG4 Fc with changes …]GGGSGSAHPIPDSSPLLQFGGQVRQRYLYTDDACQTEAHLEIREDGTVGGAADQSPESLLQLKALKPGVIQILGVKTSRFLCQRPDGALYGSLHFDPEACSFRELLLEDGYNVYQSEAHGLPLHLPGCKSPHRDPAPRGPARFLPLPGLPPAPPEPPGILAPQPPDVGSSDPLSMVGSQGRSPSYAS,10.6
9,GLP-1RA/FGF21 Fc fusion protein SEQ ID NO: 115 (Fc fusion) YGEGTFTSDKSQLLEKRLAHLFIEWLIKGGHSSIKPPPKGGGGGGGSGGGGSGGGGSA[… human IgG4 Fc with changes …]GGGSGSAHPIPDSSPLLQFGGQVRQRYLYTDDACQTEAHLEIREDGTVGGAADQSPESLLQLKALKPGVIQILGVKTSRFLCQRPDGALYGSLHFDPEACSFRELLLEDGYNVYQSEAHGLPLHLPGCKSPHRDPAPRGPARFLPLPGLPPAPPEPPGILAPQPPDVGSSDPLSMVGSQGRSPSYAS,92.2

# Now from value to binder:
row,HTRF cAMP EC50 [pM],Binder
1,11.5,GLP-1RA/FGF21 Fc fusion protein SEQ ID NO: 135 (Fc fusion) HGEGTFTSDKSQLLEERLVHLFIEWLIAGGHSSGKLPPKGGGGGGGSGGGGSGGGGSA[… human IgG4 Fc with changes …]GGGSGSAHPIPDSSPLLQFGGQVRQRYLYTDDACQTEAHLEIREDGTVGGAADQSPESLLQLKALKPGVIQILGVKTSRFLCQRPDGALYGSLHFDPEACSFRELLLEDGYNVYQSEAHGLPLHLPGCKSPHRDPAPRGPARFLPLPGLPPAPPEPPGILAPQPPDVGSSDPLSMVGSQGRSPSYAS
2,17.3,GLP-1RA/FGF21 Fc fusion protein SEQ ID NO: 134 (Fc fusion) HGEGTFTSDKSKLLEKRLAHLFIEWLIKGGHKSGKPPPKGGGGGGGSGGGGSGGGGSA[… human IgG4 Fc with changes …]GGGSGSAHPIPDSSPLLQFGGQVRQRYLYTDDACQTEAHLEIREDGTVGGAADQSPESLLQLKALKPGVIQILGVKTSRFLCQRPDGALYGSLHFDPEACSFRELLLEDGYNVYQSEAHGLPLHLPGCKSPHRDPAPRGPARFLPLPGLPPAPPEPPGILAPQPPDVGSSDPLSMVGSQGRSPSYAS
3,10.3,GLP-1RA/FGF21 Fc fusion protein SEQ ID NO: 127 (Fc fusion) HGEGTFTSDKSQLLEKRLAHLFIEWLIKGGHSSGRPPPKGGGGGGGSGGGGSGGGGSA[… human IgG4 Fc with changes …]GGGSGSAHPIPDSSPLLQFGGQVRQRYLYTDDACQTEAHLEIREDGTVGGAADQSPESLLQLKALKPGVIQILGVKTSRFLCQRPDGALYGSLHFDPEACSFRELLLEDGYNVYQSEAHGLPLHLPGCKSPHRDPAPRGPARFLPLPGLPPAPPEPPGILAPQPPDVGSSDPLSMVGSQGRSPSYAS
4,7.38,GLP-1RA/FGF21 Fc fusion protein SEQ ID NO: 130 (Fc fusion) HGEGTFTSDKSQLLEKELAHLFIEWLLAGGHSKGKPPPKGGGGGGGSGGGGSGGGGSA[… human IgG4 Fc with changes …]GGGSGSAHPIPDSSPLLQFGGQVRQRYLYTDDACQTEAHLEIREDGTVGGAADQSPESLLQLKALKPGVIQILGVKTSRFLCQRPDGALYGSLHFDPEACSFRELLLEDGYNVYQSEAHGLPLHLPGCKSPHRDPAPRGPARFLPLPGLPPAPPEPPGILAPQPPDVGSSDPLSMVGSQGRSPSYAS
5,13.4,GLP-1RA/FGF21 Fc fusion protein SEQ ID NO: 133 (Fc fusion) HGEGTFTSDKSQLLEKRLAHLFIEWLIKGGHSKQKPPPKGGGGGGGSGGGGSGGGGSA[… human IgG4 Fc with changes …]GGGSGSAHPIPDSSPLLQFGGQVRQRYLYTDDACQTEAHLEIREDGTVGGAADQSPESLLQLKALKPGVIQILGVKTSRFLCQRPDGALYGSLHFDPEACSFRELLLEDGYNVYQSEAHGLPLHLPGCKSPHRDPAPRGPARFLPLPGLPPAPPEPPGILAPQPPDVGSSDPLSMVGSQGRSPSYAS
6,8.48,GLP-1RA/FGF21 Fc fusion protein SEQ ID NO: 132 (Fc fusion) HGEGTFTSDKSQLLEKRLAHLFIEWLLAGGHSSGKLSPKGGGGGGGSGGGGSGGGGSA[… human IgG4 Fc with changes …]GGGSGSAHPIPDSSPLLQFGGQVRQRYLYTDDACQTEAHLEIREDGTVGGAADQSPESLLQLKALKPGVIQILGVKTSRFLCQRPDGALYGSLHFDPEACSFRELLLEDGYNVYQSEAHGLPLHLPGCKSPHRDPAPRGPARFLPLPGLPPAPPEPPGILAPQPPDVGSSDPLSMVGSQGRSPSYAS
7,9.83,GLP-1RA/FGF21 Fc fusion protein SEQ ID NO: 128 (Fc fusion) HGEGTFTSDKSQLLEKRLAHLFIEWLIKGGHSKGKYPPKGGGGGGGSGGGGSGGGGSA[… human IgG4 Fc with changes …]GGGSGSAHPIPDSSPLLQFGGQVRQRYLYTDDACQTEAHLEIREDGTVGGAADQSPESLLQLKALKPGVIQILGVKTSRFLCQRPDGALYGSLHFDPEACSFRELLLEDGYNVYQSEAHGLPLHLPGCKSPHRDPAPRGPARFLPLPGLPPAPPEPPGILAPQPPDVGSSDPLSMVGSQGRSPSYAS
8,11.8,GLP-1RA/FGF21 Fc fusion protein SEQ ID NO: 136 (Fc fusion) HGEGTFTSDKSKLLEKRLAHLFIEWLLAGGHSKGKPPPKGGGGGGGSGGGGSGGGGSA[… human IgG4 Fc with changes …]GGGSGSAHPIPDSSPLLQFGGQVRQRYLYTDDACQTEAHLEIREDGTVGGAADQSPESLLQLKALKPGVIQILGVKTSRFLCQRPDGALYGSLHFDPEACSFRELLLEDGYNVYQSEAHGLPLHLPGCKSPHRDPAPRGPARFLPLPGLPPAPPEPPGILAPQPPDVGSSDPLSMVGSQGRSPSYAS
9,12.9,GLP-1RA/FGF21 Fc fusion protein SEQ ID NO: 142 (Fc fusion) HGEGTFTSDKSQLLEKRLAHLFIEWLIAGGHKSGKYSPKGGGGGGGSGGGGSGGGGSA[… human IgG4 Fc with changes …]GGGSGSAHPIPDSSPLLQFGGQVRQRYLYTDDACQTEAHLEIREDGTVGGAADQSPESLLQLKALKPGVIQILGVKTSRFLCQRPDGALYGSLHFDPEACSFRELLLEDGYNVYQSEAHGLPLHLPGCKSPHRDPAPRGPARFLPLPGLPPAPPEPPGILAPQPPDVGSSDPLSMVGSQGRSPSYAS
10,7.35,GLP-1RA/FGF21 Fc fusion protein SEQ ID NO: 139 (Fc fusion) HGEGTFTSDKSQLLEKRAAHLFIEWLIAGGHSSGKLSPKGGGGGGGSGGGGSGGGGSA[… human IgG4 Fc with changes …]GGGSGSAHPIPDSSPLLQFGGQVRQRYLYTDDACQTEAHLEIREDGTVGGAADQSPESLLQLKALKPGVIQILGVKTSRFLCQRPDGALYGSLHFDPEACSFRELLLEDGYNVYQSEAHGLPLHLPGCKSPHRDPAPRGPARFLPLPGLPPAPPEPPGILAPQPPDVGSSDPLSMVGSQGRSPSYAS
